# Source: the supplement of paper PMC3334620
# Whole data set: some 33,000 sequences, median “E-score (-0.5 to 0.5)” near -0.01, cut for the highest 2% near 0.26. The list shows a part of the results.
# Target: Ste12 (UniProt P13574)
# Test: PBM E-score (8-mer binding enrichment) (E-score (-0.5 to 0.5)); higher = stronger / more preferred TF binding; most listed sequences are background and not binding sites
# Conditions: protein concentration: 200 nM; construct: GST-DNA-binding domain
# Experimental: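 Universal 'all 10-mer' protein binding microarrays (Agilent AMADID 015681) probed with GST-tagged S. cerevisiae TFs (full-length or DBD) made by in vitro transcription/translation (PURExpress), about 100-200 nM. Bound TF was detected with fluorescent anti-GST. Each ungapped 8-mer (which stands for itself and its reverse complement) is scored by the PBM enrichment score (E-score), a modified Wilcoxon-Mann-Whitney statistic from -0.5 to +0.5, computed with the Universal PBM Analysis Suite. Scale: above 0.35 generally sequence-specific binding.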
row,Sequence,PBM E-score
1,AAATTTCA,0.0583
2,ACCTGGCA,-0.17
3,ATCTTATG,0.161
4,TGCTAACA,-0.098
5,CGTTTCAA,0.46
6,ATTGGATA,0.0168
7,GTAGACCA,-0.189
8,AATATCGT,0.134
9,ACGATGAG,-0.00735
10,GTGTGCAA,-0.0711
11,GCTGTTGA,0.0409
12,CCCTAATA,-0.149
13,GCATTCAA,0.0885
14,GAGACATA,0.203
15,CGATCACA,0.0271
16,ACTAGTAC,-0.0845
17,CTCGAAAG,0.0019
18,ACTCCCAA,0.189
19,CGTTCTAG,-0.0373
20,CTAGACAG,0.0353
21,AATTAAGA,0.208
22,GATCTTCA,0.0189
23,ACTAAAAA,0.203
24,GCCTTTTA,0.0766
25,CAATGACA,-0.00173

row,Sequence,PBM E-score
1,CTACAGCA,0.039
2,GAGACCAA,0.0695
3,ACCACGAG,-0.166
4,AGCTTGTC,0.043
5,AATGATCG,-0.0109
6,ATTTATAG,0.0961
7,CGCCTCGC,0.115
8,CGCCCGTA,-0.139
9,ACTATGAT,0.0838
10,ACATTAGC,0.0463
11,CATTAGAA,0.13
12,ACTTACTC,-0.15
13,ATGGGACA,0.0115
14,GCACGGCC,0.0348
15,CGCCTGAG,-0.129
16,GAAATAAA,0.282
17,ACACACCT,0.0972
18,CGACCGCG,-0.115
19,AATGGTAA,0.128
20,CAAACTGA,0.114
21,CATAAGTA,-0.019
22,CCACCCCA,0.0623
23,CGGACGCA,-0.0811
24,ATATTACG,0.154
25,CGTTAAGC,-0.0815

row,Sequence,PBM E-score
1,GGCTTACC,-0.101
2,AAAACACT,0.215
3,CTTCACTC,-0.0309
4,CTGTTGCA,0.193
5,AGACTGGC,-0.267
6,GCTATCTA,-0.126
7,ACCTCTTC,0.0129
8,AAAACGCC,0.099
9,GAGGGCCA,0.0172
10,TCCCAGCA,-0.0236
11,CATTGTGG,0.0722
12,ATTCATTA,0.24
13,CATCGTTA,0.022
14,GACCTCAC,-0.15
15,AACAGATT,0.146
16,CGGGTTTC,0.323
17,AAGCCGTG,-0.0165
18,AGGCCTAC,0.00818
19,ATATCCTG,-0.00091
20,CGGTTAAC,0.139
21,CGGTATAA,0.155
22,GTACTGGA,0.123
23,ACGTTGGA,-0.0164
24,AGTCCCGC,-0.149
25,CAGCCTTC,-0.172

row,Sequence,PBM E-score
1,GAACGTAA,-0.00641
2,CCCTAACA,0.223
3,AAGCTGTC,-0.159
4,GAGTCTGC,-0.232
5,AGGCATCG,-0.0261
6,ACCTGCGC,-0.0192
7,AGGGACGC,-0.155
8,AGAACGTC,-0.0105
9,GATTCTCA,-0.109
10,AACGAGAT,0.0103
11,AGGCCCTC,-0.0675
12,CCAAGTAC,-0.114
13,TACACTGA,0.173
14,GCCCTGAC,-0.129
15,ATGATTAA,0.156
16,TCACACGA,0.0776
17,ACAGACTG,0.0359
18,ACATTCGT,-0.131
19,AGTATCGG,-0.0389
20,GAAGCGAA,0.101
21,ATCGGCCG,-0.022
22,CTCCAATA,0.0856
23,CAATTAGG,0.112
24,ACAAAGGA,0.0509
25,AGACGTCG,-0.0691

row,Sequence,PBM E-score
1,GACGGTAA,0.0275
2,CACCTATA,0.0143
3,TAGCCGCA,-0.136
4,GTCATGGA,-0.0644
5,AAAGGACA,0.0164
6,CGGAAACC,0.032
7,ACAAATGC,0.0293
8,AGAAAACA,0.152
9,AACGGGGT,-0.0712
10,CACTGAGC,-0.00065
11,GTGAGAAC,-0.0923
12,ATTAATTC,0.308
13,AGGGATCA,-0.0394
14,AGCAACCC,-0.0729
15,CCCTCAAA,0.097
16,GTAAAGAC,-0.0181
17,CATGGACA,-0.161
18,CAGCTATG,-0.123
19,ATAATGTA,0.0922
20,CAGTGTTA,0.0761
21,AACAGGCG,-0.146
22,GCGTGGCA,-0.238
23,CCGCTTGA,0.0406
24,ACCCGACC,0.0321
25,GATCGACC,0.0331

row,Sequence,PBM E-score
1,TAGGGCAA,-0.184
2,CAGTCATA,-0.0119
3,AGTTTCTC,-0.0852
4,AAATGTAA,0.226
5,GGCCTGAA,0.0123
6,GGAAACCA,-0.103
7,ACTTGTCG,0.131
8,CAATCAAC,-0.0439
9,ACAGCGTA,-0.163
10,GAAGGACA,0.0925
11,ACTCTACG,-0.173
12,CATTCAGC,-0.183
13,AAGGGCAA,-0.0993
14,ATACCCCG,0.0945
15,AGTGACAG,-0.057
16,GATCAGAA,-0.151
17,CTACAAAG,-0.00734
18,CATGTCCA,0.0467
19,CTACCCAA,0.0898
20,GTCGCGCA,0.0427
21,GCGAGCCA,-0.0412
22,CAGATCGG,0.00447
23,CGTACAGC,-0.0963
24,ACTCTGCA,0.0406
25,ATTATTGG,-0.0199

row,Sequence,PBM E-score
1,GCTAAAGC,-0.25
2,CCTAGATC,-0.112
3,CCTCTTTA,-0.0691
4,GTAGTGTA,-0.104
5,ATGGACAT,-0.0353
6,AACCCATC,-0.0372
7,CCCGTAAG,-0.0733
8,ACCATTTC,0.0766
9,CAAAATAC,0.115
10,CCAATTGA,0.194
11,GCCCTCCC,0.115
12,AGCGATAT,0.168
13,ATGCACTA,-0.191
14,GTTATTCA,0.0838
15,GACCCAAA,0.164
16,CGCCACCC,-0.0137
17,GGCAAGAC,-0.24
18,TAAGTGAA,0.172
19,ATCACCTG,0.0378
20,CTGACGTA,-0.0644
21,CTCGGTGA,0.0422
22,AGGATCAC,-0.106
